# Assay results reported in paper PMC6919601, “Identification of Plasmodium dipeptidyl aminopeptidase allosteric inhibitors by high throughput screening” (PLoS ONE, 2019).
# Hit rate of the full screen: of about 110,000 compounds, about 230 (0.21%) showed an effect of 50% or more. Some of the results follow.
# Target: DPAP1 (Plasmodium falciparum, UniProt Q8IIJ9)
# Assay: primary screen, percent inhibition; read by cleavage of a fluorogenic dipeptide substrate; higher = more effect of the substance
# Design: species or system P. falciparum D10 trophozoite lysates; single well
# 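Also: 30 min substrate incubation versus DMSO and 10 µM JCP410 controls.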
# Chain of DPAP1 (Q8IIJ9 whole entry, looked up): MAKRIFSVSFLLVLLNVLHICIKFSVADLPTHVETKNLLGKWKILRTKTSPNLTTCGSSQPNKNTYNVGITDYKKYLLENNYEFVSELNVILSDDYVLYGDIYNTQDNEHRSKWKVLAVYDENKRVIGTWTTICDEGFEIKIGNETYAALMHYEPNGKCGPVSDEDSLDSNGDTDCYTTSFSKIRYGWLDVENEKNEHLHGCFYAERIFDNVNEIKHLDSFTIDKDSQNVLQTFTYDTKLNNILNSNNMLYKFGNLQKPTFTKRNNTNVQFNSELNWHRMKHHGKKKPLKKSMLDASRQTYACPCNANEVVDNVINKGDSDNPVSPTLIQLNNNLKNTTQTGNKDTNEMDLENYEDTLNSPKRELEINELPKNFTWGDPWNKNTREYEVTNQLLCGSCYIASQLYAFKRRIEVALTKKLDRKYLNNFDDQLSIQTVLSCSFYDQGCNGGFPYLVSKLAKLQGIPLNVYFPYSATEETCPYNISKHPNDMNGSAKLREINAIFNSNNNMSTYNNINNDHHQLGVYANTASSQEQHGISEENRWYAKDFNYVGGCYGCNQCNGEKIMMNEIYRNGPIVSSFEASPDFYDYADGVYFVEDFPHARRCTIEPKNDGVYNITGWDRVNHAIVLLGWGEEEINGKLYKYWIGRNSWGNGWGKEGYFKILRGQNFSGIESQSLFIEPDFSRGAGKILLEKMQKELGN
row,Structure (SMILES),% Inhibition @ 10 uM
1,Cc1ccc(C)c(-c2csc(NC(=O)CSc3ccccc3)c2C(N)=O)c1,1.02%
2,O=C(NCCC1=CCCCC1)C1CCN(C(=O)c2ccc(F)cc2)CC1,-1.92%
3,Cc1c(-c2cccc(Cl)c2)nc2ccccc2c1C(=O)N1CCN(C)CC1,0.389%
4,CCC(=O)c1cn(S(=O)(=O)c2ccc(C)cc2)c2ccccc12,2.03%
5,COc1cccc(/C=C2/SC(Nc3ccccc3)=NC2=O)c1OC,8.89%
6,COc1ccc(OC)c(CNCc2ccc3c(c2)OCO3)c1,-3.4%
7,Cc1c(C=C2C(=O)NC(=O)NC2=O)c(=O)n(-c2ccccc2)n1C,2.51%
8,COc1ccc(CNC2CCCCC2C)c(OC)c1 (stereo not drawn),-2.21%
9,c1ccc(Cn2c3ccccc3c3nnc(SCCN4CCOCC4)nc32)cc1,9.29%
10,CC(C)(C)c1nc(CN2CCCCC2)cc(CN2CCCCC2)c1O,7.39%
11,COc1ccc(-c2csc(/C(C#N)=C/c3ccc(OC)c(O)c3)n2)cc1,2.01%
12,CC(C)C[C@H](NC(=O)c1ccc(N2CCCC2)nc1)C(=O)NCC#N,7.72%
13,COc1ccc(CN(C(=O)c2ccco2)c2ccccc2C(=O)O)cc1,1.67%
14,O=[N+]([O-])c1ccc(NC2OC(CO)CC(O)C2O)cc1 (stereo not drawn),-1.74%
15,COc1ccc(-c2csc(NC(=O)c3ccccc3OC)c2C(=O)O)cc1,-2.17%
16,COc1cccc(-c2cc(C(=O)N3CCn4c3nc3ccccc34)[nH]n2)c1,-2.18%
17,CCC(C)NC(=O)C(=O)Nc1ccc(Cl)cc1 (stereo not drawn),6.08%
18,COc1ccc(OCCCC(=O)Nc2ccc(N(C)C)cc2)cc1,-2.09%
19,Cc1ccc(-c2cc(C(=O)NCCN3CCOCC3)c3ccccc3n2)s1,0.726%
20,O=C(c1cccc(Cl)c1)N1CCN(c2ccccc2)CC1,4.38%
21,CC1CCCN(S(=O)(=O)c2c[nH]cn2)C1 (stereo not drawn),6.08%
22,Cc1ccc(C(CN)CC(=O)O)cc1 (stereo not drawn),-4.08%

row,Structure (SMILES),% Inhibition @ 10 uM
1,O=C(c1ccccc1Br)N1CCN(c2ccc(Cl)cc2)CC1,-1.38%
2,CSc1ncc(Cl)c(C(=O)Nc2nc3ccc(C)cc3s2)n1,-2.85%
3,Cc1ccc(CS(=O)Cc2ccc(C(=O)NCCCOC(C)C)o2)cc1 (stereo not drawn),-0.716%
4,Cc1nn(CCCC(=O)NC2CCCCCC2)c(=O)c2c1sc1ccccc12,-10.2%
5,Cc1ccc(S(=O)(=O)N2C=Cc3ccccc3C2C#N)cc1 (stereo not drawn),-5.62%
6,COc1cccc2c(O)c(-c3ccccc3)c(O)nc12,0.408%
7,Cc1cc(Cl)cc(Cl)c1OCCCCCN1CCNCC1,-0.473%
8,Cc1cc(C)cc(NC(=O)CSc2nc(C)cc(O)n2)c1,3.97%
9,O=C(Nc1ccc(F)cc1)c1ccc(Cl)c(Cl)c1,-0.294%
10,CC(C)NC(=O)c1c2c(nn1C)-c1ccccc1SC2,-2.19%
11,COCCNC(=O)c1cnn2c(O)c(Cc3ccc(Cl)cc3)c(C)nc12,0.718%
12,COCCN1Cc2cccc(C(=O)NCc3ccc(F)cc3)c2C1=O,1.23%
13,CC(=O)c1c2c(n3cc4ccccc4cc13)C(=O)c1ccccc1C2=O,0.561%
14,C=C(C)Cn1c(SCC(N)=O)nc2c1c(=O)n(C)c(=O)n2C,1.82%
15,O=C(CCc1nc2cccnc2n1Cc1ccccc1)NCc1ccccc1,-1.08%
16,COc1cc(CNC2C3CC4CC(C3)CC2C4)c([N+](=O)[O-])cc1OC (stereo not drawn),-4.04%
17,COc1ccccc1C(=O)ON1C(=O)CCC1=O,-1.03%
18,Nc1ccccc1NC(=S)Nc1ccccc1,-1.29%
19,COc1ccc2c(c1)C1(SCCCS1)c1c(c(=O)c1=O)O2,8.4%
20,CCc1nc2ccc(C(=O)NCc3ccc(OC(C)C)cc3)cc2nc1CC,7.91%
21,CCCCCC(=O)Nc1ccccc1-n1cccc1,-1.36%
22,CCOC(=O)c1c(S(=O)(=O)NCCc2ccc(Cl)cc2)c(C)n(C)c1C,0.0065%

row,Structure (SMILES),% Inhibition @ 10 uM
1,COc1ccc(N2CCN(CC(=O)Nc3nc(-c4ccccc4)cs3)CC2)cc1,-4.15%
2,CSc1ccc2c(c1)C(N1CCN(CCCO)CC1)=Cc1ccccc1S2,1.4%
3,CN(C)CCNC(=O)C12CCC3CC(CC(C3)C1)C2,-1.54%
4,COc1ccc(S(=O)(=O)N(CC(=O)Nc2cccnc2)c2ccccc2)cc1OC,-3.71%
5,CCNC(=O)c1ccc(-c2nc(CS(=O)(=O)c3ccccc3)c(C)o2)cc1,-0.591%
6,CCOC(=O)N1CCC(/N=c2\c(O)c(O)\c2=N/CCCN(CC)CC)CC1,5.09%
7,Cc1oc(-c2ccccc2Cl)nc1CSCC(=O)NCc1cccnc1,-2.85%
8,O=C(NC1CCCc2ccccc21)C1CCN(c2cnccn2)CC1 (stereo not drawn),2.41%
9,Cc1ccc(-n2nc(C)c3c(C(=O)NC(C)C)cc(C)nc32)cc1,1.12%
10,Cc1occc1C(=O)Nc1sc2c(c1C(N)=O)CCCCC2,3.76%
11,Cc1ccccc1OCC(=O)Nc1cccc(N2C(=O)c3cccc([N+](=O)[O-])c3C2=O)c1,-6.83%
12,Cc1cccc(NC(=O)c2sc3ncn(CC(=O)N4CCCCC4C)c(=O)c3c2C)n1 (stereo not drawn),-3.93%
13,COc1ccc(-c2noc(N3CC(C)CC(C)C3)n2)cc1OC (stereo not drawn),5.7%
14,O=C(CNC(=S)N(Cc1ccccc1)Cc1cccs1)NCc1ccc(F)cc1,-7.73%
15,Cc1ccc(C(=O)Nc2sc(C)c(C)c2C(=O)O)cc1,3.06%
16,Clc1ccc(N2CCN(C3CCSC3)CC2)cc1 (stereo not drawn),1.88%
17,COc1ccc2c(CNCCc3ccccc3Cl)c(C(=O)O)n(C)c2c1,0.984%
18,CCCCNC(=O)c1cn(C)c(=O)c2cc(OC)c(OC)cc12,-5.67%
19,O=C(CN(c1ccc(F)cc1)S(=O)(=O)c1ccc2c(c1)OCCO2)NCC1CCCO1 (stereo not drawn),-2.54%
20,COc1ccc(C(=O)c2cc3ccccc3cc2O)cc1,-5.1%
21,CCOc1ccc(NC(=O)CN(c2ccccc2CC)S(C)(=O)=O)cc1,2.02%
22,Cc1cc(C)c2cccc(NC(=O)c3ccc(Cl)cc3)c2n1,-1.22%
